# Experimental data taken from the supplement of paper PMC12217912.
# The list shows a part of the results. Sequences were assembled here from the parent chain. Values near 0.05 are background.
# B1: TEV protease; numbered along this chain (parent)
# chain: MGESLFKGPRDYNPISSSICHLTNESDGHTTSLYGIGFGPFIITNKHLFRRNNGTLVVQSLHGVFKVKDTTTLQQHLVDGRDMIIIRMPKDFPPFPQKLKFREPQREERICLVTTNFQTKSMSSMVSDTSCTFPSGDGIFWKHWIQTKDGQCGSPLVSTRDGFIVGIHSASNFTNTNNYFTSVPKNFMELLTNQEAQQWVSGWRLNADSVLWGGHKVFMVKPEEPFQPVKEATQL
# Variants of: B1
# Assay: raw area under fraction-flipped curve 0-4 h after induction (AUC4h, not background-subtracted), DNA-recorder readout of cleavage of the substrate (dimensionless); higher = more cleavage of the substrate by the protease variant
# Settings: temperature: 34 °C; time window: 0-4 h after rhamnose induction
# Protocol: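 In vivo DNA recorder in E. coli TOP10(DE3) ΔrhaA at 34 °C. Each TEVp single-site mutant (parent TEVp 0) is paired with a single-site variant of the 7-mer TEVs (canonical ENLYFQ|S). The substrate sits between flexible linkers in a Bxb1-sfGFP-TEVs-SsrA fusion, so cleavage stabilises Bxb1 and speeds flipping of a recombination array, read by NGS. The value is the raw area under the fraction-flipped curve over 0-4 h after rhamnose induction (AUC4h), with ≥20 reads per time point. It is not background-subtracted; inactive controls average about 0.047.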
# 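Also: Bxb1 expression induced with 0.2% (w/v) L-rhamnose at OD600 near 0.5, cultures sampled hourly, flipped fraction per protease–substrate barcode pair counted by paired-end Illumina sequencing.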
Variant,area with substrate ENLYAQS,area with substrate ENLYCQS,area with substrate ENLYDQS,area with substrate ENLYEQS,area with substrate ENLYGQS,area with substrate ENLYHQS,area with substrate ENLYIQS,area with substrate ENLYKQS,area with substrate ENLYLQS,area with substrate ENLYMQS,area with substrate ENLYNQS,area with substrate ENLYPQS,area with substrate ENLYQQS,area with substrate ENLYRQS,area with substrate ENLYSQS,area with substrate ENLYVQS,area with substrate ENLYWQS,area with substrate ENLYTQS,area with substrate ENLYYQS
M125T,0.0779,0.0981,0.063,0.0701,0.0657,0.0567,0.132,0.0616,0.0841,0.0909,0.0668,0.074,0.0653,0.0629,0.0523,0.0851,0.0661,–,–
M125N,0.0707,0.0757,0.0565,0.0627,0.0675,0.0658,0.159,0.0519,0.0631,0.104,0.0692,0.0778,0.0422,0.0582,0.0775,–,0.0859,0.0947,0.0637
R106F,0.0722,–,0.0628,0.0802,0.0599,0.0661,0.141,0.0529,–,0.0684,–,0.0769,0.0616,0.0116,–,0.117,0.091,–,–
T129W,0.066,0.082,0.0575,0.0753,0.0646,0.0646,0.117,0.045,–,0.0971,0.0658,0.0752,0.0454,0.0523,0.0932,0.117,0.0887,0.0835,–
V126N,0.0798,0.127,0.0697,0.0672,0.0528,0.0749,0.105,0.0567,0.0931,0.0934,–,–,0.0651,0.0473,0.0876,0.0583,0.0693,0.079,0.0657
F133N,0.0833,–,0.059,–,0.0647,0.0872,0.116,–,–,–,0.0522,0.0788,–,0.0561,–,0.0871,–,0.0771,–
E108T,0.0462,0.0476,0.0461,0.0564,0.0497,0.0454,–,–,–,0.0558,0.042,0.06,0.0445,0.0531,0.0811,0.0909,0.087,–,–
S135A,0.0606,0.0746,0.0601,0.066,0.102,0.0642,0.0883,0.0715,0.0642,0.0539,0.0676,0.0615,–,0.0566,–,0.0609,0.0606,–,–
S127D,0.0644,–,–,–,0.0555,0.0705,0.138,0.054,–,0.0811,–,–,0.0829,0.0736,0.0824,0.0835,0.0748,0.0794,0.0562
S127P,0.0366,0.117,0.0627,0.0707,0.064,0.0717,0.118,0.0686,0.0855,–,0.0863,0.0817,0.0812,0.0444,0.0681,–,0.13,–,–
S123A,0.0819,–,–,0.0584,0.0565,0.0695,–,0.0654,–,0.0758,0.0824,–,0.0652,0.0538,–,–,0.0871,0.112,0.0568
M122Q,0.0646,0.103,0.0698,0.0775,0.0708,0.0648,0.123,0.0572,0.0769,0.0867,0.0771,0.0806,–,0.0381,0.0666,0.101,0.0785,0.0701,0.0883
M122E,0.0713,–,–,0.0693,0.0645,0.068,–,0.077,–,0.0682,0.079,–,0.0565,0.0229,0.0736,0.122,0.0964,–,–
D137N,0.0868,–,0.0645,0.0771,0.045,0.0703,0.118,0.0478,0.0768,0.0844,0.0636,0.0752,0.0625,0.0569,–,0.124,0.0728,0.0674,0.0584
D137R,0.0617,0.0754,0.0557,0.0629,0.0669,0.0621,0.114,0.0461,0.0618,0.0706,–,0.0629,0.101,0.0837,0.0725,–,–,0.0666,0.0544
E107A,0.0753,0.0583,0.0458,0.0643,–,0.0775,0.116,0.0646,–,0.0671,–,0.077,0.0511,0.0712,–,0.122,0.098,–,0.0978
F140C,0.0686,–,0.0554,0.0473,0.0518,0.0644,0.0713,0.0675,–,0.0655,0.0628,0.0529,0.0534,0.0815,0.0607,0.0697,0.0693,–,0.0857
T132V,0.0792,0.0817,0.0493,0.0712,–,0.0578,0.106,0.0693,0.0742,0.0712,0.0619,0.0755,0.0351,0.065,0.0707,0.0978,0.0556,0.0674,0.054
V113P,0.07,0.0829,0.0612,0.0536,–,0.0669,0.0777,0.0591,0.0586,0.0649,0.0577,0.0519,0.0499,0.0584,0.0501,0.0834,0.0712,0.0319,0.0451
I139G,0.0888,–,–,0.0665,0.082,0.0493,0.0535,0.0662,0.0766,0.0696,0.0691,0.059,–,0.0548,–,0.092,0.0749,0.0536,0.0613
I139S,0.0631,–,0.0505,0.0586,0.0451,0.071,0.0813,0.0557,0.0659,0.08,0.0674,0.0657,0.064,0.0684,0.0741,0.135,0.0887,0.0459,0.0537
N116D,0.0747,–,0.0643,0.0642,0.0717,0.0599,0.122,0.0602,–,–,0.0808,0.0716,0.069,–,–,0.0973,0.0718,0.0816,0.0779
T115N,0.122,–,0.0562,–,–,0.0706,–,0.0619,–,0.0734,–,–,0.0579,0.0599,–,–,0.0879,0.0814,–
F117H,0.0866,–,0.0633,0.055,0.0712,0.0713,0.137,0.042,–,0.0738,0.0662,0.0598,0.0763,0.0628,0.0508,0.121,0.0782,0.0782,–
